# ChEMBL document CHEMBL4888484, “Replenishing the malaria drug discovery pipeline: Screening and hit evaluation of the MMV Hit Generation Library 1 (HGL1) against asexual blood stage Plasmodium falciparum ,using a nano luciferase reporter read-out” (2022)
# The campaign covered roughly 150,000 compounds. About 540 (0.36%) showed an effect of 50% or more. The list shows a part of the results.
# Test system: Plasmodium falciparum
# Assay: Primary screen in NF54 nanoGlo assay, in single point, at 2uM, 72h; a lower Z score goes with more inhibition
# Format: functional, Erythrocyte
# Details: timepoint 72 hour
SMILES,% Inhibition [%],Z score
CCS(=O)(=O)N1CCN(C(=O)Nc2ccc3c(c2)CCC3)CC1,-10,0.89
O=C([C@@H]1CNCCN1C(=O)c1csc(-c2cccs2)n1)N1CCCC1,-13,1.59
CCOc1ccc(S(=O)(=O)Cc2c(C)noc2C)cc1,-4,0.69
O=C(NC[C@H](O)c1c(Cl)cccc1Cl)c1cnc[nH]1,-5,1.03
COCc1cc(NCCCn2nc(C)cc2C)n2nccc2n1,-3,0.51
Cc1ccccc1C1c2[nH]c3ccccc3c2C[C@H]2C(=O)N(c3ccccc3C(=O)NCc3ccc(Cl)cc3)C(=O)N12 (stereo partly drawn),-17,2.52
CCCCS(=O)(=O)N(C)CCN1CCCC1,9,-0.95
COc1ccc(C)cc1-n1c(Cc2c[nH]c3ccccc23)n[nH]c1=O,-14,2.2
COCCn1c(N)c(N(Cc2ccccc2)C(=O)COc2ccccc2F)c(=O)[nH]c1=O,-13,1.3
C=C(C)COc1cccc(CNC[C@H](C)Oc2cccnc2)c1,-2,0.37
Cc1ccc(-c2ccn(CC(=O)Nc3ccnn3C)n2)s1,-12,1.68
CC1CCC(N(C(=O)C2CCC(C(N)=O)CC2)C2CC2)CC1 (stereo not drawn),-8,0.69
COCCN(Cc1c(-c2ccccc2)nn(-c2ccc(F)cc2)c1N(C)C)C(=O)c1cccs1,-11,1.04
CCOC(=O)N1CCc2c(sc(NC(=O)CN3C(=O)CCC3=O)c2C(N)=O)C1,-4,0.74
NS(=O)(=O)c1ccc(CCNC(=O)[C@@H]2CCCN2S(=O)(=O)c2ccccc2F)cc1,-13,1.71
CC1CN(C(=O)CCNC(=O)CCOc2ccccc2Cl)CC(C)O1 (stereo not drawn),-21,2.43
O=C(Cn1cc(-c2ccccc2)c2ncn(C3CC3)c(=O)c21)NCc1ccc(F)cc1,-2,0.31
Cc1cc(F)c2nc(O)cc(C(=O)Nc3ncc(C)[nH]3)c2c1,-11,1.19
Cc1ccc(F)c(NS(=O)(=O)c2cc(-c3ccn[nH]3)oc2C)c1,2,-0.25
CC(=O)N1CCC[C@H](C(=O)OCC(=O)N2CCCCCC2)C1,-2,0.25
CCCNC(=O)N1CCc2[nH]c(-c3ccccc3)nc2C1,-17,2.56

SMILES,% Inhibition [%],Z score
O=C(c1cc(F)cc(F)c1)N1CC[C@H]2[C@H](CCC(=O)N2CCCO)C1,-15,1.67
CCC(CC)(CN)NS(=O)(=O)c1ccccc1Br,24,-2.74
CCN(CC)c1ccc(NC(=O)COc2ccc(Cl)cc2)cn1,13,-1.49
CCCN[C@@H](C)C(=O)N1CCC(N2CCc3cc(F)ccc32)CC1,-14,1.26
c1c(OCC2CCN(C[C@H]3CCCCO3)CC2)nnc2c1CCCC2,-16,1.81
Cc1nc[nH]c1CN[C@H]1CC(C)(C)Cc2nc(C(C)(C)C)ncc21,-5,0.71
COc1cccc2sc(N(C)CC(=O)NCC(F)(F)F)nc12,-4,0.84
CCNC(=O)N1CCC[C@@H]1CS(=O)(=O)c1ccccc1,-6,1.1
CS(=O)(=O)CC1(CC(=O)Nc2n[nH]c3cccc(F)c23)CC1,-9,1.54
O=c1ccc(-c2ccc(CN3CCCCC3)cc2)c[nH]1,-5,0.95
CC(C)c1cc(CN(C)C(=O)CNC(=O)N(C)C)no1,-2,0.27
CC(C)Nc1ccccc1C(=O)N(C)[C@H](c1ccccn1)C1CC1,-3,0.59
Cn1cccc1C(=O)NCc1nc(C2CCC(F)(F)CC2)no1,-10,1.34
COc1ccc(-c2cnnn2-c2ccc(N3C(=O)c4ccccc4C3=O)cc2)cc1OC,-1,0.13
COCCN(CC1CCN(Cc2ccccc2F)CC1)C(=O)CCc1ccccc1C,-12,1.88
COc1ccc(-c2cn(-c3ccc(C)c(C)c3)c(NC(=O)CN(C[C@H]3CCCO3)C(=O)c3cccc(OC)c3)n2)cc1,-9,1.14
Cc1cc(S(C)(=O)=O)cc(C(=O)N2CCC3(CCC3)CC2)c1C,24,-2.74
Cc1cc(C)cc(CCC(=O)N2CC[C@@](C(=O)O)(C(F)(F)F)C2)c1,-8,1.13
COc1cc2c(cc1OC)[C@H](c1ccccc1Cl)N(C(=O)COCc1ccccc1)CC2,9,-1.79
COc1nccc(NC(=O)N2CC(C)(C#N)C2)n1,-2,0.2
CCN(CC#N)C(=O)[C@@H]1CCCC[C@H]1C(=O)N(CC)CC#N,4,-0.65

SMILES,% Inhibition [%],Z score
FC(F)(F)c1cccnc1N1CCC([C@H]2CCNC2)CC1,7,-1.42
CC(C)O[C@H]1CN(C(=O)c2cncc(Cl)c2)C[C@@H]1O,-13,2.47
Cc1nnc(-c2ccc(-n3cnnc3)cc2)[nH]1,-5,1.08
O=c1ccn(-c2ccccc2)nc1-c1nc(-c2ccc3c(c2)OCO3)no1,0,-0.06
Cc1ccc(-c2nnc3n2CCCCC3)cc1NC(=O)C1(c2cccc(F)c2)CCC1,-2,0.23
O=C(NCc1ccc(F)cn1)[C@@H]1CCCO1,-9,1.25
CONC(=O)C(=O)Nc1ccc(Br)cc1C,-10,1.25
Nc1nc(C2CC2)nc(N2CCN(C[C@H]3CCC4(CCC4)O3)CC2)n1,4,-0.4
CN(C)C(=O)c1n[nH]c2c1CN(C(=O)c1ccc(F)cc1F)CC2,5,-0.73
N#Cc1ccc(S(=O)(=O)N2CC(=O)NC3CCCCC32)o1 (stereo not drawn),0,-0.06
Cn1nnc(CS(=O)(=O)c2cccc(Br)c2)n1,-15,2.37
CC(C)COCCC(=O)N1CCC[C@H](NS(C)(=O)=O)C1,-2,0.27
COc1ccc([C@@H]2CCCN2c2ncccn2)cc1,7,-0.82
CC(c1ccco1)N(C)C(=O)[C@@H]1CC[C@H](C(=O)O)C1 (stereo partly drawn),-2,0.28
Cc1ccc(N2C(=O)N(Cc3cccc(C#N)c3)S(=O)(=O)c3cccnc32)cc1F,-8,0.77
COCCN1C[C@]2(CCCN(C(=O)Cc3cccc(F)c3)C2)CCC1=O,-13,2.04
Cc1nn(-c2ccccc2)c2sc(C(=O)NC(c3ccccc3)c3ccccc3)cc12,-11,1.9
OCCC1(CNc2ccccn2)CCOCC1,-6,0.9
CCN1CCCC(N2C(=O)OC(C)(C)C2(C)O)C1 (stereo not drawn),-13,1.41
C#CCCC1(CCC(=O)N2CCOC3CCN(C)CC32)N=N1 (stereo not drawn),-7,0.93
Cc1cc(-c2cccc(C(=O)N(Cc3cccnc3)CC(C)C)c2)ccn1,-8,1.38

SMILES,% Inhibition [%],Z score
COc1ccc(Cc2nn(CN(C)CC(=O)Nc3ccc(Cl)cc3)c(=S)o2)cc1,-16,2.1
COc1ccc(C2=NC3(CCN(Cc4ccccc4)CC3)N[C@H](c3cc(Cl)ccc3O)C2)cc1,40,-5.7
CCOC(c1noc(C(C)Cc2ccc(C)cc2)n1)C1CCOCC1 (stereo not drawn),-11,1.15
CON(C)C[C@H](O)Cn1cc(Nc2nc3ccccc3s2)cn1,-10,1.28
COC[C@H]1CCCN(C(=O)NCc2cccc(OC(C)(C)C)n2)CC1,-9,1.72
Cc1noc(C)c1CCC(=O)N1CCO[C@@H](C)C1,-2,0.24
CCN(CC)Cc1ccc2c(c1)CN(C(=O)c1ocnc1C)CCO2,-11,1.17
Cc1cc(C)c(CN2CCOC[C@@H]2C(=O)O)cc1CN1CCN(C)CC1,5,-1.05
CCn1nnc2cc(C(=O)N3CCOCC3)ccc21,-10,1.96
O=C(Cc1cccs1)N1CC[C@H](CCOc2ccccc2F)C1,-6,1.07
O=C(Cn1ccc2c(nnc3ccnn32)c1=O)NC1CCCCCC1,2,-0.22
Cc1cc(C)n(CCC(=O)N2CC[C@H](CCc3noc(C)n3)C2)n1,4,-0.6
Cc1cc(NC(=O)[C@@H]2CCCN2C(=O)CC(C)(C)C)ccn1,-5,0.69
CCC[C@H]1CN(C(=O)CCc2ccc(O)cc2)C[C@@H]1N(C)C,-15,1.47
O=C(c1nncc2ccccc12)N1CC[C@H](O)CC12CCC2,-4,0.75
CCC[C@H](C)c1cc(NC(=O)c2cnc(C)cn2)[nH]n1,-16,1.91
O=C(Cc1nnc(-c2cnccn2)o1)Nc1cc(F)cc(F)c1,4,-0.36
O=S(=O)(NC1(CO)CC1)c1c(Cl)cc(Br)cc1Cl,0,-0.01
Cc1cc(=O)n2ccn(Cc3nc(C4CC4)cs3)c2n1,-5,1.07
CCc1ccc(S(=O)(=O)N2CC[C@H](N3CCOC3=O)C2)s1,-5,0.7
CC(C)CC[C@]1(C)NC(=O)N(Cc2cc(=O)n(C)c(=O)n2C)C1=O,2,-0.19
